PubChem BioAssay (NCATS)
Several values for one entry are separate records, joined by “and”; a condition that tells them apart may be missing. Identical values can stand only once. This list was built around the results that the source calls inconclusive (neither active nor inactive); the mix of calls is not that of the screen. For some of these results: Potencies of inconclusive entries are doubtful fits and often do not repeat. Activity calls are given as the source filed them. Calls come from the whole dose curve; as a rule, active = well fitted curve in the direction sought with a large enough effect; inconclusive = small, poorly fitted or top-dose-only effect, or another doubt; inactive = no such curve, though single readings can be large; an effect the other way counts as inactive or inconclusive.

Assays:
[1] = qHTS of pediatric cancer cell lines to identify multiple opportunities for drug repurposing: Primary screen for DAOY cells (AID 1347090); conditions: DAOY medulloblastoma viability, CellTiter-Glo luminescence, 48 h; activity change, negative = cytotoxic: at 46 µM (top of the series); note: nearly all actives have a fitted effect of over 55% in size;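 for activity change, negative = cytotoxic: plate controls were DMSO for no effect and bortezomib for full effect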
How it was run: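 Cell viability, CellTiter-Glo luminescence; 500-1,000 cells/well, 8- or 11-point titration, 48 h compound exposure at 37 degrees C, 5% CO2. Controls: DMSO neutral, bortezomib 2.3 µM final as positive.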

[2] = qHTS of pediatric cancer cell lines to identify multiple opportunities for drug repurposing: Primary screen for A673 cells (AID 1347092); conditions: A673 Ewing sarcoma viability, CellTiter-Glo ATP luminescence, 48 h; activity change, negative = cytotoxic: at 46 µM (top of the series); note: nearly all actives have a fitted effect of over 45% in size; for activity change, negative = cytotoxic: % is set by controls: 0 for no effect and ±100 for the full control effect
How it was run: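 A673 cells (500-1,000 cells/well in growth media) were pre-incubated 5 h at 37 degrees C, then exposed to compounds for 48 h. Viability was read as CellTiter-Glo luminescence; concentration-response curves came directly from the primary screen.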

[3] = qHTS of pediatric cancer cell lines to identify multiple opportunities for drug repurposing: Primary screen for BT-37 cells (AID 1347094)
How it was run: (§1)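 Cells seeded at 500-1,000 cells/well in growth media, rested 5 hours at 37 degrees C, 5% CO2, then dosed; MIPE compounds at 11-point (from 0.78 nM) and NPC at 8-point (from 0.59 nM) final concentrations. Viability by CellTiter-Glo luminescence after 48 hours.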

[4] = qHTS of pediatric cancer cell lines to identify multiple opportunities for drug repurposing: Primary screen for NB-EBc1 cells (AID 1347095)
How it was run: as §1

[5] = qHTS of pediatric cancer cell lines to identify multiple opportunities for drug repurposing: Primary screen for U-2 OS cells (AID 1347096); note: nearly all actives have a fitted effect of over 50% in size
How it was run: (§2)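 Cells (500-1,000/well) rested 5 h, then received compounds for 48 h; metabolically active cells were measured by CellTiter-Glo luminescence. Final concentrations spanned up to 46 µM (MIPE, 11-point) or 0.59 nM-46 µM (NPC, 8-point) in primary screens, 11-point in follow-ups.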

[6] = qHTS of pediatric cancer cell lines to identify multiple opportunities for drug repurposing: Primary screen for Saos-2 cells (AID 1347097); note: nearly all actives have a fitted effect of over 40% in size; for activity change, negative = cytotoxic: % is set by controls: 0 for no effect and ±100 for the full control effect
How it was run: as §1

[7] = qHTS of pediatric cancer cell lines to identify multiple opportunities for drug repurposing: Primary screen for SK-N-SH cells (AID 1347098); note: nearly all actives have a fitted effect of over 65% in size; for activity change, negative = cytotoxic: % is set by controls: 0 for no effect and ±100 for the full control effect
How it was run: as §2

[8] = qHTS of pediatric cancer cell lines to identify multiple opportunities for drug repurposing: Primary screen for NB1643 cells (AID 1347099); note: nearly all actives have a fitted effect of over 50% in size;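 for activity change, negative = cytotoxic: plate controls were DMSO neutral control for no effect and bortezomib positive control for full effect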
How it was run: as §1

[9] = qHTS of pediatric cancer cell lines to identify multiple opportunities for drug repurposing: Primary screen for BT-12 cells (AID 1347101); note: nearly all actives have a fitted effect of over 25% in size
How it was run: as §2

[10] = qHTS of pediatric cancer cell lines to identify multiple opportunities for drug repurposing: Primary screen for RD cells (AID 1347104); note: nearly all actives have a fitted effect of over 55% in size
How it was run: as §1

[11] = qHTS of pediatric cancer cell lines to identify multiple opportunities for drug repurposing: Primary screen for Rh30 cells (AID 1347107); note: nearly all actives have a fitted effect of over 75% in size
How it was run: as §2

[12] = qHTS of pediatric cancer cell lines to identify multiple opportunities for drug repurposing: Primary screen for Rh41 cells (AID 1347108); note: nearly all actives have a fitted effect of over 70% in size
How it was run: as §1

[13] = qHTS of pediatric cancer cell lines to identify multiple opportunities for drug repurposing: Confirmatory screen for NB1643 cells (AID 1347109); conditions: NB1643 neuroblastoma cell viability; activity change, negative = cytotoxic: at 45.9 µM (top of the series); note: nearly all actives have a fitted effect of over 45% in size
How it was run: as §2

[14] = qHTS of pediatric cancer cell lines to identify multiple opportunities for drug repurposing: Primary screen for SK-N-MC cells (AID 1347093); conditions: SK-N-MC viability, CellTiter-Glo luminescence, 48 h; activity change, negative = cytotoxic: at 46 µM (top of the series);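 for activity change, negative = cytotoxic: plate controls were DMSO neutral control for no effect and bortezomib for full effect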
How it was run: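 Metabolically active cells were quantified by ATP-dependent luminescence (CellTiter-Glo, 15 min at room temperature) following 48 h treatment. Cells had been plated at 500-1,000 per well and settled for 5 h beforehand.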

[15] = qHTS of pediatric cancer cell lines to identify multiple opportunities for drug repurposing: Primary screen for OHS-50 cells (AID 1347103); note: nearly all actives have a fitted effect of over 40% in size
How it was run: as §2

[16] = qHTS of pediatric cancer cell lines to identify multiple opportunities for drug repurposing: Primary screen for MG 63 (6-TG R) cells (AID 1347105); conditions: MG 63 (6-TG R) viability, CellTiter-Glo, 48 h; activity change, negative = cytotoxic: at 46 µM (top of the series); note: nearly all actives have a fitted effect of over 50% in size
How it was run: as §1

[17] = qHTS of pediatric cancer cell lines to identify multiple opportunities for drug repurposing: Primary screen for control Hh wild type fibroblast cells (AID 1347106); note: nearly all actives have a fitted effect of over 55% in size
How it was run: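 Viability after 48 h compound treatment at 37C, 500-1,000 cells/well, read as ATP luminescence with CellTiter-Glo. Primary screens used 11-point (MIPE, 0.78 nM-46 µM) or 8-point (NPC, 0.59 nM-46 µM) final concentrations; follow-up screens used 11-point dilutions.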
Potency is the fitted concentration of half-maximal effect; tags give direction and shape of the fitted curve.

COc1cc2c(c(OC)c1OC)-c1ccc(OC)c(=O)cc1[C@@H](NC(C)=O)CC2
activity change, negative = cytotoxic [1]: inconclusive: -79.4% | activity change, negative = cytotoxic [2]: inconclusive: -85.9% | Potency [3]: active: 6.2 nM and active: 172 nM | Potency [4]: active: 42.2 nM and active: 1 nM | Potency [5]: inconclusive: 16.8 nM [cytotoxic, full curve] and inconclusive: 2.3 nM [cytotoxic, full curve, poor fit] | Potency [6]: active: 5.3 nM and active: 1.32 µM | Potency [7]: inconclusive: 54.5 nM [cytotoxic, full curve] and inconclusive: 27.1 nM [cytotoxic, full curve, poor fit] | Potency [8]: active: 8.4 nM and inconclusive: 7.4 nM [cytotoxic, full curve] | Potency [9]: active: 11 nM and active: 1 nM | Potency [10]: inconclusive: 6.7 nM [cytotoxic, full curve] and inconclusive: 3.72 µM [cytotoxic, full curve] | Potency [11]: inconclusive: 6.62 µM [cytotoxic, partial curve] | Potency [12]: inconclusive: 5.3 nM [cytotoxic, full curve] and active: 20.9 µM | Potency [13]: active: 0.0447 µM

CCCCCCCCCCCCCCCC(=O)O[C@H]1[C@@H](O)[C@@H](O)[C@@H]([C@H](NC(=O)[C@@H]2C[C@@H](CCC)CN2C)[C@H](C)Cl)O[C@@H]1SC
Potency [1]: inconclusive: 11.8 µM [cytotoxic, partial curve, poor fit] | Potency [2]: inconclusive: 18.7 µM [cytotoxic, partial curve, poor fit] | Potency [14]: active: 18.7 µM | Potency [6]: inactive | Potency [7]: inconclusive: 42.9 µM [cytotoxic, single point] | Potency [8]: inconclusive: 20.9 µM [cytotoxic, partial curve] | Potency [10]: inconclusive: 10.5 µM [cytotoxic, partial curve] | Potency [12]: inconclusive: 10.5 µM [cytotoxic, partial curve]

CC(C)(C)[C@H](NC(=O)c1ccc(N)c(Cl)c1)C(=O)N1CCC[C@@H]1C(=O)N[C@H](C#N)CC(=O)O
Potency [1]: inconclusive: 0.296 µM [cytotoxic, full curve, poor fit] | Potency [2]: inconclusive: 0.59 µM [cytotoxic, full curve] | Potency [14]: active: 0.235 µM | Potency [6]: inconclusive: 0.372 µM [cytotoxic, partial curve] | activity change, negative = cytotoxic [7]: inactive: 23.1% [at 6 µM] | Potency [10]: inconclusive: 0.469 µM [cytotoxic, partial curve, poor fit] | Potency [12]: inconclusive: 0.526 µM [cytotoxic, partial curve]

CC1(COc2ccc3c(c2)ncn3-c2ccc3cccc(N4CCC(N)CC4)c3n2)COC1
Potency [1]: active: 0.0469 µM | activity change, negative = cytotoxic [2]: inconclusive: -103% | Potency [4]: active: 1 nM | Potency [5]: active: 29.6 µM | Potency [8]: inactive | Potency [15]: active: 13.7 µM | Potency [16]: inconclusive: 4.69 µM [cytotoxic, partial curve, poor fit] | Potency [17]: inconclusive: 0.0093 µM [cytotoxic, full curve, poor fit] | Potency [12]: inconclusive: 0.935 µM [cytotoxic, full curve, poor fit] | Potency [13]: inconclusive: 7.37 µM [cytotoxic, single point]

CC(C)c1nc(CN(C)C(=O)N[C@H](C(=O)N[C@@H](Cc2ccccc2)C[C@H](O)[C@H](Cc2ccccc2)NC(=O)OCc2cncs2)C(C)C)cs1
Potency [1]: inconclusive: 23.5 µM [cytotoxic, partial curve] | Potency [2]: inconclusive: 14.8 µM [cytotoxic, partial curve, poor fit] and inconclusive: 8.41 µM [cytotoxic, partial curve] | Potency [14]: inconclusive: 33.5 µM [cytotoxic, partial curve, poor fit] | Potency [3]: inconclusive: 27.3 µM [cytotoxic, single point] | Potency [4]: inconclusive: 18.7 µM [cytotoxic, partial curve] and active: 23.7 µM | Potency [6]: inconclusive: 42.2 µM [cytotoxic, single point] | Potency [7]: inconclusive: 34.1 µM [cytotoxic, single point] and inconclusive: 21.7 µM [cytotoxic, single point] | Potency [8]: inconclusive: 1.66 µM [cytotoxic, full curve, poor fit] and inconclusive: 21.1 µM [cytotoxic, partial curve, poor fit] | Potency [10]: inconclusive: 20.9 µM [cytotoxic, partial curve]

CC(C)c1noc(N2CCC(COc3ccc(-c4ccc(S(C)(=O)=O)cc4)nc3)CC2)n1
Potency [1]: inconclusive: 5.9 µM [cytotoxic, full curve, poor fit] | Potency [2]: inconclusive: 5.9 µM [cytotoxic, full curve, poor fit] | Potency [14]: inactive | Potency [3]: inconclusive: 12.2 µM [cytotoxic, partial curve] | Potency [6]: inconclusive: 14.8 µM [cytotoxic, partial curve, poor fit] | Potency [9]: inconclusive: 3.85 µM [cytotoxic, full curve] | Potency [10]: inconclusive: 13.2 µM [cytotoxic, partial curve, poor fit] | Potency [12]: inconclusive: 4.18 µM [cytotoxic, partial curve, poor fit]
